Test [1] deals with T1, PAH1-His (Sin3A-PAH1 115–212) (UniProt Q60520).
T1 sequence: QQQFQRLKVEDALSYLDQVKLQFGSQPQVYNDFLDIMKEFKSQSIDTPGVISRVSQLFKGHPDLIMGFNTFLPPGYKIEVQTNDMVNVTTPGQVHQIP
Put plainly: SEC; analytical gel filtration of purified GB1-Tet1(878–911) and His-PAH1 mixed at a 1:1 ratio; complex read from earlier elution; both purified.

Test [2] has as its target T1, PAH1-His (Sin3A-PAH1 115–212). The description is as above. The source holds these as a separate data set.
Test [3] addresses Tet1-SID(878–911) for NMR (UniProt Q3URK3). In words: NMR titration; 15N-HSQC of the free Tet1-SID and after addition of PAH1 (Supplementary Fig. S6); both purified.
The target in the next test is GST-Tet1(878–911) (UniProt Q3URK3). Put plainly: pull-down; GST fusion bound to glutathione-Sepharose beads; partner in vitro translated with [35S]-methionine; 150 mM NaCl, 20 mM Tris pH 8.0, 1 mM EDTA, 0.5% IGEPAL CA-630, 3 h; SDS-PAGE and phosphorImager; only the target purified.
The target in another test is T2, GST-Tet1 878–911 I894A (UniProt Q3URK3).
T2 sequence: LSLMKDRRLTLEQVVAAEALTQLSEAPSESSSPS
The description is as above.

Test [4] has as its target T3, GST-Tet1 878–911 L897A/L900A (UniProt Q3URK3).
T3 sequence: T2 sequence with A17I, L20A, L23A
The test is described as above.

Test [5] addresses T4, GST-Tet1 878–911 A893D/A896D (UniProt Q3URK3).
T4 sequence: T2 sequence with A16D, A17I, A19D
Described as above.

These results are taken from paper PMC6168491, “Sin3A recruits Tet1 to the PAH1 domain via a highly conserved Sin3-Interaction Domain” (Scientific Reports, 2018).

Where a chain is given by its changes, count along the chain named. Names may count otherwise. Where two headings read alike, the source gives them in different places. No constants are given. Whether binding was seen depends on the method and setting. For some of these results: In cells and extracts the contact can be indirect. Some entries that bind do so weakly or less than the wild type. For some of these results: Sequences can lack the tags named with a protein.

For the molecule “GB1-Tet1(878–911) (from UniProt Q3URK3 861-894) (domain or fragment)”, the binding entry in test [1] is reported as “binds”.

B1: Tet1-SID(878–911) I894A for NMR (domain or fragment, UniProt Q3URK3 861-894, looked up)
chain: T2 sequence
notes: Tag removal for NMR was conducted as needed
Regarding B1, the binding result in test [2] is “binds”.

B2: Tet1-SID(878–911) T898A for NMR (domain or fragment, UniProt Q3URK3 861-894, looked up)
chain: T2 sequence with A17I, T21A
notes: as for B1
Consider B2, for which the binding result in test [2] is reported as “binds”.

B3: PAH1(115–212) for NMR (domain or fragment, UniProt Q60520 115-212)
chain: T1 sequence
Consider B3, for which the binding result in test [3] is given as “binds”.

B4: Sin3A 1–205 (domain or fragment, UniProt Q60520 1-205)
chain: MKRRLDDQESPVYAAQQRRIPGSTEAFSHQHRVLAPAPPVYEAVSETMQSATGIQYSVAPNYQVSAVPQSSGSHGPAIAAVHSSHHHPTAVQPHGGQVVQSHAHPAPPVAPVQGQQQFQRLKVEDALSYLDQVKLQFGSQPQVYNDFLDIMKEFKSQSIDTPGVISRVSQLFKGHPDLIMGFNTFLPPGYKIEVQTNDMVNVTTP
modifications: [35S]-methionine label
B4: the binding entry with GST-Tet1(878–911) is given as “binds”.

B5: full-length 35S-Met labelled Sin3A (protein, UniProt Q60520 1-1274)
chain: MKRRLDDQESPVYAAQQRRIPGSTEAFSHQHRVLAPAPPVYEAVSETMQSATGIQYSVAPNYQVSAVPQSSGSHGPAIAAVHSSHHHPTAVQPHGGQVVQSHAHPAPPVAPVQGQQQFQRLKVEDALSYLDQVKLQFGSQPQVYNDFLDIMKEFKSQSIDTPGVISRVSQLFKGHPDLIMGFNTFLPPGYKIEVQTNDMVNVTTPGQVHQIPTHGIQPQPQPPPQHPSQPSSQSAPTPAQPAPQPTAAKVSKPSQLQAHTPASQQTPPLPPYASPRSPPVQPHTPVTISLGTAPSLQNNQPVEFNHAINYVNKIKNRFQGQPDIYKAFLEILHTYQKEQRNAKEAGGNYTPALTEQEVYAQVARLFKNQEDLLSEFGQFLPDANSSVLLSKTTAEKVDSVRNDHGGTVKKPQLNNKPQRPSQNGCQIRRHSGTGATPPVKKKPKLMSLKESSMADASKHGVGTESLFFDKVRKALRSAEAYENFLRCLVIFNQEVISRAELVQLVSPFLGKFPELFNWFKNFLGYKESVHLESFPKERATEGIAMEIDYASCKRLGSSYRALPKSYQQPKCTGRTPLCKEVLNDTWVSFPSWSEDSTFVSSKKTQYEEHIYRCEDERFELDVVLETNLATIRVLEAIQKKLSRLSAEEQAKFRLDNTLGGTSEVIHRKALQRIYADKAADIIDGLRKNPSIAVPIVLKRLKMKEEEWREAQRGFNKVWREQNEKYYLKSLDHQGINFKQNDTKVLRSKSLLNEIESIYDERQEQATEENAGVPVGPHLSLAYEDKQILEDAAALIIHHVKRQTGIQKEDKYKIKQIMHHFIPDLLFAQRGDLSDVEEEEEEEMDVDEATGAPKKHNGVGGSPPKSKLLFSNTAAQKLRGMDEVYNLFYVNNNWYIFMRLHQILCLRLLRICSQAERQIEEENREREWEREVLGIKRDKSDSPAIQLRLKEPMDVDVEDYYPAFLDMVRSLLDGNIDSSQYEDSLREMFTIHAYIAFTMDKLIQSIVRQLQHIVSDEVCVQVTDLYLAENNNGATGGQLNSQTSRSLLESAYQRKAEQLMSDENCFKLMFIQSQGQVQLTVELLDTEEENSDDPVEAERWSDYVERYMSSDTTSPELREHLAQKPVFLPRNLRRIRKCQRGREQQEKEGKEGNSKKTMENVESLDKLECRFKLNSYKMVYVIKSEDYMYRRTALLRAHQSHERVSKRLHQRFQAWVDKWTKEHVPREMAAETSKWLMGEGLEGLVPCTTTCDTETLHFVSINKYRVKYGTVFKAP
modifications: [35S]-methionine label
As for B5, the binding result with GST-Tet1(878–911) is reported as “binds”; with GST-Tet1 878–911 I894A, “binds”; in test [4], “no binding”; in test [5] it was “no binding”.

B6: Sin3A 1–479 (domain or fragment, UniProt Q60520 1-479)
chain: MKRRLDDQESPVYAAQQRRIPGSTEAFSHQHRVLAPAPPVYEAVSETMQSATGIQYSVAPNYQVSAVPQSSGSHGPAIAAVHSSHHHPTAVQPHGGQVVQSHAHPAPPVAPVQGQQQFQRLKVEDALSYLDQVKLQFGSQPQVYNDFLDIMKEFKSQSIDTPGVISRVSQLFKGHPDLIMGFNTFLPPGYKIEVQTNDMVNVTTPGQVHQIPTHGIQPQPQPPPQHPSQPSSQSAPTPAQPAPQPTAAKVSKPSQLQAHTPASQQTPPLPPYASPRSPPVQPHTPVTISLGTAPSLQNNQPVEFNHAINYVNKIKNRFQGQPDIYKAFLEILHTYQKEQRNAKEAGGNYTPALTEQEVYAQVARLFKNQEDLLSEFGQFLPDANSSVLLSKTTAEKVDSVRNDHGGTVKKPQLNNKPQRPSQNGCQIRRHSGTGATPPVKKKPKLMSLKESSMADASKHGVGTESLFFDKVRKALRSAE
modifications: [35S]-methionine label
With B6, the binding result with GST-Tet1(878–911) was “binds”.
